# Over roughly 1,800 sequences, “median log2 fold change of GCK-ALFA target abundance (FLAG IP / Myc IP barcode read proportion)” has its median near 0.14; the lowest 2% begin near -0.84. The list shows a part of the results.
# T1: TRAF2, Q12933
# T1 chain: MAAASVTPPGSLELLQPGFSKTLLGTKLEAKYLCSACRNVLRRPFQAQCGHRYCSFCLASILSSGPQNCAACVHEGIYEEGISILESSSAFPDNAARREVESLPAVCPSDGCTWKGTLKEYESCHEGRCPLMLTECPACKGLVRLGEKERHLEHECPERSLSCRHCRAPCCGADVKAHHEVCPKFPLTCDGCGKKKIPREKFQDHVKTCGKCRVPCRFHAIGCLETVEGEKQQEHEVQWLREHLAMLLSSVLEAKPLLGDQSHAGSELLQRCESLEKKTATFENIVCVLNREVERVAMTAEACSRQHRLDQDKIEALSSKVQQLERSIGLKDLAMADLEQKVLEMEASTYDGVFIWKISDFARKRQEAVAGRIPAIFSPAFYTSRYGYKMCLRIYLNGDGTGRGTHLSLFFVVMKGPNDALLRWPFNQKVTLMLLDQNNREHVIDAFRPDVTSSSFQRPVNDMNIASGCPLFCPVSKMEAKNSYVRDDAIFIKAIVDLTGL
# B1: traf2_out_13_95_1167 (protein)
# chain: EEEKTKKEREIASEAFDKREAIATDFAAKVKALIDDPAAAALMDEVVRNMNIYTLEHAAKQLQAAYPEKAAEIQALADEAIAKMKEIDKETTKKLNEIEK
# B2: traf2_out_1_27_984 (protein)
# chain: SDEEFQALLREADREMATLSLEEKLALAREVLRRAHEMGPEDLPLAAVHLAISTKTDEEFEALLEAIREELERLGVSPEEIERILKQMETAYNLTKKALA
# B3: traf2_out_11_169_824 (protein)
# chain: AEAERNRKINDKALELNDKAKEKLKEFALELAKKAGLDVEEVKAIFEKHKGASLSAIAAALIEYFRSKGKEEEAEAVLKKYEELKDEINKEMAKFLKELE
# B4: traf2_out_6_156_2433 (protein)
# chain: SKEEILKEAKEELSKLIKKLAAAPEEKKIKYISEIAGTFYRALQRLRDAGASLEEIKEAAEELIKHAEEEAKKAGLDEDTINLLLSSLNAVAIDALASAA
# B5: traf2_out_11_104_634 (protein)
# chain: LTREQARRLNDFAMAKRDEAAAVAAATAARLRELGETEAAARVEAALAHSGAGISTFRNLLEDLRPELSPEAAAVADAAIARLRALQAEVSAKLNELEAE
# B6: traf2_out_16_171_1433 (protein)
# chain: SAAAREAALRAEIAADAERLKERMETMVEMTPLISKETGLSVEQIAKGFRSTMTDRLEALRAHYRALAADLSPEVHAFIDERFAEVEEALEKAVAEILAK
# B7: traf2_out_11_155_679 (protein)
# chain: EKKKELNNELVDKTTEIADKAKAEGKAIADEAAAAHPEHAAEIRAVLEAAAPYSYRTFLGEAARTFERLGLEEAAARLKALLEKAQKEMNKIVKEIEAKL
# B8: traf2_out_18_3_1920 (protein)
# chain: KEEELKKISDEIDKVVDETTEKAKEWLEKAKKEIPEYKEEVEELEKLLESGAGPFGILDELAELWEKAGKEEEAAEIKKFKKEQRKKLQKLVDEYEKLIK
# B9: traf2_out_5_189_2328 (protein)
# chain: SEKEEEEKKLTEKAKKLAKKARELLAELEAKGASHEEIKAALLEELKKLSIEDARLYAGIMYAILLNRAWVKNDKALEAAAKEFRKEALALIEKREKEAA
# B10: traf2_out_11_155_740 (protein)
# chain: EKKLELNQKMNDEIMDLFDEARKKADEIVERAAKEHPEHKEELEALKEKTKGFSYRSYILSYIELFKELGLEEEAEELEKLLEETQKKANEIVKKTEKEL
# B11: traf2_out_11_155_670 (protein)
# chain: SEKQKLNNELVNELTEIADELKEKVEKILKEAAAAHPEHAEELAAVIASGKTLSGRSFARLAAQKFRELGLEEEAKKVEELLEEAQKKMNEVVKKYEEKL
# B12: traf2_out_20_3_2163 (protein)
# chain: EELEKEAEKELEKAIELLKKAAELSDPETAKRLEKLIKRLKASRKLSPSDRLVVVSEVRREVLRLAEEARAAGKEELAKLLEEAADALNRLAQLLYKIIE
# B13: traf2_out_11_169_866 (protein)
# chain: EEKEKNRKLIDFALEVEDEAKKKLKEFALALAKEYGLDVEEVKKIFEENKNSSLSAIASALIKYFKSKGKEEAAEEVLKKHEELKEEINKKVSEFIKELE
# B14: traf2_out_11_169_785 (protein)
# chain: EEAEKNRKFNDFALEKEDEAKEKLKKFALKLAKEAGLDVAEVEKIFEDNKGKSLSAIAAALVAYFTAKGKEDAAAKVLEKYEELKEEINKAGSEFMKELE
# B15: traf2_out_14_149_1258 (protein)
# chain: SATAAKKAALERAAAIFREIADTLAAALAAGSTDVDLAALRAKVDEARAILKAQGFVLGSLLQLEELLAATTTATPATLERLLALARRAAESAEVLAEML
# B16: traf2_out_13_95_1100 (protein)
# chain: SRELAEKIMEIADKMLEESEEILEELLKKAKEKGVAEEEIQEALYLARTRSINEAIHLLKELSKKYPELKEELDEAIEKLEELKREAGRKVAELIKEEEE
# B17: traf2_out_13_95_1083 (protein)
# chain: SAEANERIMEIADRMLEEVDRILEELAKKVADDPEMKAAVEEALHLARTHGINAAIHLLEELAKANPEYKELLDAAIEELRRIKREAGRRVAEILREEEE
# B18: traf2_out_15_180_1331 (protein)
# chain: MTEEELEKRIKLASEVADKVQDRLDELLAANPELSPEERAALRALARSLLTLLLAGEWEEAEAALAAAEARVSPRAAAVARELYEFIKEEVEKAKKELEA
# B19: traf2_out_18_3_1906 (protein)
# chain: LEEKRKKLSDEIDKIVDEAEAYAREVLDELAARHPEVAAELARLRAVLDAGGGAFGVLEALAELARRLGEEELAARIEEFIREKRKEMQELVDEYEKLIK
# B20: traf2_out_17_162_1569 (protein)
# chain: EELERRLRELRERLRELEERLREFEEEEKEFPKMSYEELTDRLVEVSELRREARELAEELRRLGEELGEEELRELVERAEEIAERLNRIANKIYKEIEKK
# B21: traf2_out_18_117_1783 (protein)
# chain: SEREKIIKELKKIAEETGKAASRLGKLMEENWEKLTPEQKSEAMDVLADLSEVRREALLLIHKIETENIPVEEAKKELEKLKKKAEEALKKAEEVIKKIE
# B22: traf2_out_3_89_2298 (protein)
# chain: SPEQAARLAEARARMDAYLRGFEKSARRVAREMVADGASLETLRGVLEAARTALLEVLRESAEEAGLSPEDIAALVAEAERRLTEIVERIVAEAEAERAA
# B23: traf2_out_16_104_1387 (protein)
# chain: SAATQAQFDAIIAQLQAIADRANKLANELYKLYLKASPEKKKEISDALVEVSEIKREARQAALAAQAARAAGGDPAAAQATLAKLQERLEKAEKELKELK
# B24: traf2_out_20_3_2160 (protein)
# chain: SELEKKMEEEREKAIELLEKAAELADEETAKKLKELKKKVEESKELSYDDQLVVLSEVRREVRELAEEAREEGKEELAKVLEEAAEALNRAMNLAYKIIQ
# B25: traf2_out_13_95_1149 (protein)
# chain: SAETAAEINAIADEMLDEVEKLLEELLKIAKEKGVPTEPFQKALDLAKYQSVNEAIHLLKELSKKYPELKEEIDKTIEEIEKLKREAGRKVAEVLKKAKA
# B26: traf2_out_3_89_2304 (protein)
# chain: MEERERKIREMEERRDAYIRGFEKSARRVAKEMLEEGMSLETIRGVLEAARTALVEELREEARERGLSEEDIERLSKDAEERLGKIVEEVVKEAEERRKE
# B27: traf2_out_20_3_2156 (protein)
# chain: SALEAAAQAALDRAIALLAEAAALADPETAARLEALRARVEASRSLSPSDRLVVLSEVRREVRALAEEARRAGREELAAVLEAAADALNRAMNLTYQLIQ
# B28: traf2_out_6_156_2405 (protein)
# chain: MLEEIEEETLKEIEELIKELAAASEEKKIAYISKIAGTFYRGLQRARAAGASVEELEAFGKRVLEKTKELLDEEGLPQDVKDLILSSLNAVFDVALAEAR
# B29: traf2_out_19_87_1994 (protein)
# chain: NEKAREEMREYQDKLVDYKDEAVKLAQEALGLSEEEARALSRLSIEALRETVDAKFAEAIAADPEKAEELEAAREEIDKLLDKAKEAAKKLAEAFEEYEK
# Target: T1, TRAF2, Q12933
# Experiment: median log2 fold change of GCK-ALFA target abundance (FLAG IP / Myc IP barcode read proportion) (log2 ratio); each designed protein is fused to an ALFA-tag nanobody in HEK293 cells to bring the named protein to FLAG-tagged glucokinase (GCK); Myc marks an untargeted standard; higher = target protein stabilised (more abundant)
# Conditions: target protein: 3xFLAG-MCP-GCK-ALFA reporter; HEK293 landing pad (RPLP)
# How it was run: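 Binders fused to an ALFA nanobody were recombined as a library into HEK293 landing-pad cells, which were induced with 2 μg mL^−1 doxycycline and then transfected to express a FLAG-tagged target and a Myc-tagged standard. After 48 h, circular RNA barcodes recovered by anti-FLAG and anti-Myc immunoprecipitation of lysates were reverse transcribed, amplified and sequenced. Each binder's target abundance is the median log2 ratio of FLAG to Myc barcode read proportions, from barcodes present at ≥10^−7 in both replicates, binders carrying ≥3 barcodes per replicate, a 10^−6 pseudocount and pooled replicates.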
row,Binder,median log2 fold change
1,B1,0.302
2,B2,0.2
3,B3,0.0712
4,B4,0.164
5,B5,0.273
6,B6,-0.108
7,B7,0.0935
8,B8,-0.0516
9,B9,-0.177
10,B10,0.142
11,B11,0.263
12,B12,0.302
13,B13,0.473
14,B14,0.0519
15,B15,0.341
16,B16,-0.367
17,B17,-0.117
18,B18,0.153
19,B19,0.00452
20,B20,0.176
21,B21,0.183
22,B22,-0.699
23,B23,0.0322
24,B24,0.184
25,B25,-0.199
26,B26,-0.744
27,B27,0.0138
28,B28,0.151
29,B29,0.24

# — the supplement of paper PMC12632987
